# Assay results as given in the supplement of paper PMC11417369.
# The list shows a part of the results.
# Tested on: PfHDP1 homeodomain (GST-tagged)
# Assay: gcPBM binding intensity (ln(normalized median fluorescence intensity)); higher = stronger DNA binding
# Summary of the method: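 An Agilent 4 × 180k array of primer-extended double-stranded 36-bp intergenic genomic probes, with negative controls, was incubated for 1 h with GST-tagged P. falciparum DNA-binding domains expressed in E. coli. Alexa488 anti-GST antibody detected bound protein, scanned at 488 nm. Binding intensity is the highest Masliner-normalised natural-log median intensity across replicate spots of either probe orientation.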
row,Sequence,gcPBM binding intensity (ln)
1,ATATATATAAAACACACACACACATGGTTTAAAACT [CACACA_site4219],6.96
2,TTGTAAATTTACATTTGTACATAAATATATTAATAT [XGTACX_site3969],6.84
3,AAAAAGGAGAAACACACACACACACCCATATATATA [CACACA_site905],6.98
4,CATGCTACATCTTATTGTACTTATCTAATGTTAGTA [XGTACX_site1863],6.75
5,AGGCAATATTATATATATATATATATATATATATAT [CACACA_negctrl_site826],9.3
6,ATTTTTTTTTTTTTTTTTTATATGCTCTCCATGAGA [CACACA_negctrl_site1225],6.36
7,ATTAATATGAATAAAACACACATATATAATTTGTAA [CACACA_site1929],6.13
8,TAACTTTTATCCTTAATTCATATATAAGATTAAATC [CACACA_negctrl_site669],6.29
9,AAAAAAAAAAAGAAATGTACATGAATATTTTAAATG [XGTACX_site4069],6.29
10,TATATATTCATATGTTGTACATAAATACAAATAAGA [XGTACX_site5602],6.67
11,TGCAGTCTGGAGAAGAGTACACAGTATCTGGTAACA [XGTACX_site2037],5.77
12,TGGCATTAAAATTTAGTGCATATATCTTAGCATGGG,8.68
13,TGTGTATATTATATGTGTACATATCAATGTTTATAT [XGTACX_site1885],6.64
14,TAATATATAACGTGCACACACACATCTACGTATGAA [CACACA_site5080],9.9
15,TAATATTAAATAAATAAAATATATAATATATATATA [XGTACX_negctrl_site49],8.07
16,GTATGATGCATAAGAGTGCATAAGGATATTTCTTCA,9.4
17,AATTTAAAAAATAACAGTACATAAAATATATACATA [XGTACX_site7917],5.91
18,TATTGTTATTAAAAATGTACATATAAATTTCTTATT [XGTACX_site1409],6.21
19,AAAAATAAAAGGTGTGCACACAAAAATATATATATA [CACACA_site8507],10.7
20,TATTTATTCTCCAACACACACACATATATATATATA [CACACA_site2894],9.14

row,Sequence,gcPBM binding intensity (ln)
1,TTATAGGTGCTTCGTAGTACATAAAAATAATATATA [XGTACX_site6979],6.29
2,AAAATGAATTTAAAATGTACTTTTTCTAAAGAGTAA [XGTACX_site2337],6.06
3,TTTATATAATATGAATGTACTTATATATTTATAGAC [XGTACX_site3261],6.29
4,AAGACTCTTTGTCCTTGTACATATATTTTTATGTTT [XGTACX_site3711],6.06
5,AGTTTTATATTTCTGAGTACTTATGAATCTAGCTCG [XGTACX_site4330],6.65
6,TTGTAAAAAATTCATACACACGTCTTATTTTTAAGA [CACACA_site8390],6.21
7,ATTTTTTCTAAAAGTTGTACATTAAAACGTGTTCAC [XGTACX_site4803],6.24
8,TTTTTTTTTTTTTTTACACACATTTTAATAATTTTA [CACACA_site1492],6.58
9,CCTTTAAGCAAAAACACACACACATATATATATATA [CACACA_site348],9.26
10,TCTTCCATTTTTATTACACACATAAATATGAAATCG [CACACA_site3471],6.78
11,ACATTTTTGGTTTTAGTGCAATATGAATTATTTTAT,9.92
12,TTATTTCTAATTCGTTGTACAATATATAATATATAT [XGTACX_site5861],6.85
13,TATCCATATTTGTTCACACACACACGGATTTATATA [CACACA_site7649],6.75
14,GGAATATTATTTCAATGTACATTTTGAGATTAGAAT [XGTACX_site8187],6.91
15,ATTATTATTTTACGTAGTACATATAATAAATATTTA [XGTACX_site8934],6.01
16,TAGGTGTTAAAAAATACACACACAAAAAAAAAAAAA [CACACA_site7927],6.36
17,TTGATAGACACATGCACACATGCAATACTTTATTCA [CACACA_site3000],8.85
18,TTAGATATTAATATATGTACATATTAATATATTTAC [XGTACX_site7119],6.1
19,CACACTTTTTAAATTAACGCATTTCAAAAAAAATAT [CACACA_negctrl_site84],6.21
20,TTTCTTTTTTAGAGGTGTACACGTAGGCCTCTTGGA [XGTACX_site4760],6.45

row,Sequence,gcPBM binding intensity (ln)
1,TATTTATACACGCACACACACTTATACATTTATATA [CACACA_site7543],8.4
2,TAAATGTAAAACGAAATGCACACTATGGAAAATATA [CACACA_site724],9.19
3,TATAATTTTTACTGGGTGCACTCGATATTTTAAATA,9.68
4,TATAAAATAAAAAATATATATATGTATATATATATA [TGCATGCA_negctrl_site163],8.86
5,ATTATTTTATATACATGTACATATTATATATAAAAG [XGTACX_site2735],6.56
6,TATAAGTGCTCAACGGTGCATTTATAGAAGTTAAAC,10
7,GGTTTACCCTATAAATGTACTCATAAATTATATATA [XGTACX_site5771],6.16
8,ATACGAAATAGAAACACACATACAATAAATAAATAT [CACACA_site2017],6.83
9,TGTTCAGTATGGCACACACACAACAAAATAAAAAAA [CACACA_site4368],6.65
10,ATAAATATGGCAGTACGTACGTATATTCATATTCAT [XGTACX_site8042],6.29
11,ATTAAAAAAAAAAAAAAAAAACAAAAAAAAAAAAAA [CACACA_negctrl_site1187],5.88
12,AGTAGCAAATATTAAGTGCATATTATATAATGTGTA [GTGCAC_site9546],8.69
13,TTTTTTTTTTTTTTTTGTACATATACATATATATAT [XGTACX_site1981],8.09
14,AAAAAATATATATATATATATATGTAATATTTTTTT [XGTACX_negctrl_site439],6.68
15,TCAATGAAATTAATATGTACATATTTTTATATAGTA [XGTACX_site7955],6.37
16,TGGCAAAATAGGCACACACACATATACAGATATATT [CACACA_site4727],6.67
17,AAAACTATAAAAATTTTACACACTGTTTTTAAATAA [CACACA_site3667],6.55
18,TATATTATAATATTCACACACTAACGTAAATCATTG [CACACA_site7318],6.58
